Assay results taken from the supplement of paper PMC8728848.
Some of the results follow.

Assays:
Assay in all cases: glycan array binding signal (z-score within array); higher = stronger binding
Settings in all cases: glycan notation: IUPAC condensed, linker removed
[1] = target: Neu5Ac(a2-3)GalNAc
Outline: (§1)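 From the Consortium for Functional Glycomics database, 3228 arrays were curated, keeping only those whose protein sequence was available. Binding is given as a within-array Z-score averaged across arrays sharing a protein sequence and across linkers. Negative Z-scores can be read as non-binding.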

[2] = target: Neu5Ac(a2-3)GalNAc(b1-4)GlcNAc
Outline: as §1

[3] = target: Neu5Ac(a2-3)[GalNAc(b1-4)]Gal(b1-4)Glc
Outline: as §1

[4] = target: Neu5Ac(a2-3)[GalNAc(b1-4)]Gal(b1-4)GlcNAc
Outline: as §1

[5] = target: Neu5Ac(a2-3)[GalNAc(b1-4)]Gal(b1-4)GlcNAc(b1-3)GalNAc
Outline: as §1

[6] = target: Neu5Ac(a2-3)[Neu5Ac(a2-6)]GalNAc
Outline: as §1

[7] = target: Neu5Ac(a2-6)Gal
Outline: as §1

[8] = target: Neu5Ac(a2-6)Gal(b1-3)GlcNAc(b1-3)[Gal(b1-4)GlcNAc(b1-6)]Gal(b1-4)Glc
Outline: as §1

[9] = target: Neu5Ac(a2-6)Gal(b1-4)Glc
Outline: as §1

[10] = target: Neu5Ac(a2-6)Gal(b1-4)GlcNAc
Outline: as §1

[11] = target: Neu5Ac(a2-6)Gal(b1-4)GlcNAc(b1-2)Man
Outline: as §1

[12] = target: Neu5Ac(a2-6)Gal(b1-4)GlcNAc(b1-2)Man(a1-3)Man(b1-4)GlcNAc(b1-4)GlcNAc
Outline: as §1

[13] = target: Neu5Ac(a2-6)Gal(b1-4)GlcNAc(b1-2)Man(a1-3)[Gal(b1-4)GlcNAc(b1-2)Man(a1-6)]Man(b1-4)GlcNAc(b1-4)GlcNAc
Outline: as §1

[14] = target: Neu5Ac(a2-6)Gal(b1-4)GlcNAc(b1-2)Man(a1-3)[GlcNAc(b1-4)][Neu5Ac(a2-6)Gal(b1-4)GlcNAc(b1-2)Man(a1-6)]Man(b1-4)GlcNAc(b1-4)GlcNAc
Outline: as §1

[15] = target: Neu5Ac(a2-6)Gal(b1-4)GlcNAc(b1-2)Man(a1-3)[Man(a1-6)]Man(b1-4)GlcNAc(b1-4)GlcNAc
Outline: as §1

[16] = target: Neu5Ac(a2-6)Gal(b1-4)GlcNAc(b1-2)Man(a1-3)[Neu5Ac(a2-3)Gal(b1-4)GlcNAc(b1-2)Man(a1-6)]Man(b1-4)GlcNAc(b1-4)GlcNAc
Outline: as §1

[17] = target: Neu5Ac(a2-6)Gal(b1-4)GlcNAc(b1-2)Man(a1-3)[Neu5Ac(a2-6)Gal(b1-4)GlcNAc(b1-2)Man(a1-6)]Man(b1-4)GlcNAc(b1-4)GlcNAc
Outline: as §1

[18] = target: Neu5Ac(a2-6)Gal(b1-4)GlcNAc(b1-2)Man(a1-3)[Neu5Ac(a2-6)Gal(b1-4)GlcNAc(b1-2)Man(a1-6)]Man(b1-4)GlcNAc(b1-4)[Fuc(a1-6)]GlcNAc
Outline: as §1

[19] = target: Neu5Ac(a2-6)Gal(b1-4)GlcNAc(b1-2)Man(a1-6)Man(b1-4)GlcNAc(b1-4)GlcNAc
Outline: as §1

[20] = target: Neu5Ac(a2-6)Gal(b1-4)GlcNAc(b1-2)Man(a1-6)[Gal(b1-4)GlcNAc(b1-2)Man(a1-3)]Man(b1-4)GlcNAc(b1-4)GlcNAc
Outline: as §1

[21] = target: Neu5Ac(a2-6)Gal(b1-4)GlcNAc(b1-2)Man(a1-6)[GlcNAc(b1-2)Man(a1-3)]Man(b1-4)GlcNAc(b1-4)GlcNAc
Outline: as §1

[22] = target: Neu5Ac(a2-6)Gal(b1-4)GlcNAc(b1-2)Man(a1-6)[Man(a1-3)]Man(b1-4)GlcNAc(b1-4)GlcNAc
Outline: as §1

[23] = target: Neu5Ac(a2-6)Gal(b1-4)GlcNAc(b1-2)[Neu5Ac(a2-6)Gal(b1-4)GlcNAc(b1-4)]Man(a1-3)[GlcNAc(b1-4)][Neu5Ac(a2-6)Gal(b1-4)GlcNAc(b1-2)[Neu5Ac(a2-6)Gal(b1-4)GlcNAc(b1-6)]Man(a1-6)]Man(b1-4)GlcNAc(b1-4)GlcNAc
Outline: as §1

[24] = target: Neu5Ac(a2-6)Gal(b1-4)GlcNAc(b1-2)[Neu5Ac(a2-6)Gal(b1-4)GlcNAc(b1-4)]Man(a1-3)[GlcNAc(b1-4)][Neu5Ac(a2-6)Gal(b1-4)GlcNAc(b1-4)Man(a1-6)]Man(b1-4)GlcNAc(b1-4)GlcNAc
Outline: as §1

[25] = target: Neu5Ac(a2-6)Gal(b1-4)GlcNAc(b1-2)[Neu5Ac(a2-6)Gal(b1-4)GlcNAc(b1-6)]Man(a1-6)[Neu5Ac(a2-6)Gal(b1-4)GlcNAc(b1-2)Man(a1-3)][GlcNAc(b1-4)]Man(b1-4)GlcNAc(b1-4)GlcNAc
Outline: as §1

[26] = target: Neu5Ac(a2-6)Gal(b1-4)GlcNAc(b1-3)Gal(b1-3)GlcNAc
Outline: as §1

[27] = target: Neu5Ac(a2-6)Gal(b1-4)GlcNAc(b1-3)Gal(b1-4)GlcNAc
Outline: as §1

[28] = target: Neu5Ac(a2-6)Gal(b1-4)GlcNAc(b1-3)Gal(b1-4)GlcNAc(b1-2)Man(a1-3)[Neu5Ac(a2-6)Gal(b1-4)GlcNAc(b1-3)Gal(b1-4)GlcNAc(b1-2)Man(a1-6)]GalNAc
Outline: as §1

[29] = target: Neu5Ac(a2-6)Gal(b1-4)GlcNAc(b1-3)Gal(b1-4)GlcNAc(b1-3)Gal(b1-4)GlcNAc
Outline: as §1

[30] = target: Neu5Ac(a2-6)Gal(b1-4)GlcNAc(b1-3)Gal(b1-4)GlcNAc(b1-3)Gal(b1-4)GlcNAc(b1-2)Man(a1-3)[Neu5Ac(a2-6)Gal(b1-4)GlcNAc(b1-3)Gal(b1-4)GlcNAc(b1-3)Gal(b1-4)GlcNAc(b1-2)Man(a1-6)]GalNAc
Outline: as §1

[31] = target: Neu5Ac(a2-6)Gal(b1-4)GlcNAc(b1-3)Gal(b1-4)GlcNAc(b1-3)GalNAc
Outline: as §1

[32] = target: Neu5Ac(a2-6)Gal(b1-4)GlcNAc(b1-3)Gal(b1-4)GlcNAc(b1-3)[Neu5Ac(a2-6)Gal(b1-4)GlcNAc(b1-3)Gal(b1-4)GlcNAc(b1-6)]GalNAc
Outline: as §1

[33] = target: Neu5Ac(a2-6)Gal(b1-4)GlcNAc(b1-3)Gal(b1-4)GlcNAc(b1-6)[Gal(b1-3)]GalNAc
Outline: as §1

[34] = target: Neu5Ac(a2-6)Gal(b1-4)GlcNAc(b1-3)Gal(b1-4)[Fuc(a1-3)]GlcNAc(b1-3)Gal(b1-4)[Fuc(a1-3)]GlcNAc
Outline: as §1

[35] = target: Neu5Ac(a2-6)Gal(b1-4)GlcNAc(b1-3)GalNAc
Outline: as §1

[36] = target: Neu5Ac(a2-6)Gal(b1-4)GlcNAc(b1-3)[Neu5Ac(a2-6)Gal(b1-4)GlcNAc(b1-6)]GalNAc
Outline: as §1

[37] = target: Neu5Ac(a2-6)Gal(b1-4)GlcNAc(b1-6)GalNAc
Outline: as §1

[38] = target: Neu5Ac(a2-6)Gal(b1-4)GlcNAc(b1-6)[Gal(b1-3)GlcNAc(b1-3)]Gal(b1-4)Glc
Outline: as §1

B1: Pwp3 (Candida glabrata) (protein)
chain: MGSSHHHHHHSSGLVPRGSHMASKNPVDFTTVCQFPDNFSKKPGFLATTARLGLWITGNSYKELLNYPGTFTLTTQQASTTTPNIQLRGTDLFTTIYGLTVYPLYLLVELQGYFVPTQSGMYTFSLTGSDDAAIIFIGNPSTFPCDAFKTWPQATANDITVTDSINPSRTLYMVKGVAYPLRIAYYNGLGNGVLNAAFTDPSGTKRTDWNGYIWQYDQCSTCTYK
glycan array binding signal (z-score) [1]: -0.215
glycan array binding signal (z-score) [2]: 0.357
glycan array binding signal (z-score) [3]: -0.171
glycan array binding signal (z-score) [4]: -0.119
glycan array binding signal (z-score) [5]: -0.31
glycan array binding signal (z-score) [6]: -0.14
glycan array binding signal (z-score) [7]: -0.64
glycan array binding signal (z-score) [8]: -0.183
glycan array binding signal (z-score) [9]: 0.297
glycan array binding signal (z-score) [10]: 0.265
glycan array binding signal (z-score) [11]: -0.372
glycan array binding signal (z-score) [12]: -0.617
glycan array binding signal (z-score) [13]: 0.054
glycan array binding signal (z-score) [14]: 1.66
glycan array binding signal (z-score) [15]: -0.074
glycan array binding signal (z-score) [16]: -0.141
glycan array binding signal (z-score) [17]: -0.002
glycan array binding signal (z-score) [18]: -0.429
glycan array binding signal (z-score) [19]: -0.519
glycan array binding signal (z-score) [20]: -0.713
glycan array binding signal (z-score) [21]: -0.199
glycan array binding signal (z-score) [22]: 0.611
glycan array binding signal (z-score) [23]: 0.295
glycan array binding signal (z-score) [24]: 1.39
glycan array binding signal (z-score) [25]: -0.03
glycan array binding signal (z-score) [26]: -0.21
glycan array binding signal (z-score) [27]: 0.007
glycan array binding signal (z-score) [28]: -0.213
glycan array binding signal (z-score) [29]: -0.291
glycan array binding signal (z-score) [30]: 1.6
glycan array binding signal (z-score) [31]: -0.326
glycan array binding signal (z-score) [32]: -0.47
glycan array binding signal (z-score) [33]: 0.018
glycan array binding signal (z-score) [34]: -1.24
glycan array binding signal (z-score) [35]: -0.314
glycan array binding signal (z-score) [36]: 0.771
glycan array binding signal (z-score) [37]: 0.084
glycan array binding signal (z-score) [38]: -0.263
